In all, about 81,000 sequences were measured (“one-hybrid fitness for binding parS DNA”: median about -0.17, highest 2% from about 0.51 on). The list shows a part of the results.
B1: Caulobacter ParB omega fusion; a variant is named by its letters at X, in order, B8GW30 (parent)
chain: MESVVVGEPGMSEGRRGLGRGLSALLGEVDAAPAQAPGEQLGGSREAPIEILQRNPDQPRRTFREEDLEDLSNSIREKGVLQPILVRPSPDTAGEYQIVAGERAWRAAQRAGLKTVPIMVRELDDLAVLEIGIIENVQRADLNVLEEALSYKVLMEKFERTQENIAQTIGKSXSHVANXMRLLXLPDEVQSYLVSGELTAXHARAIAAAADPVALAKQIIEGGLSVRETEALARKAPNLSAGKSKGGRPPRVKDTDTQALESDLSSVLGLDVSIDHRGSTGTLTITYATLEQLDDLCNRLTRGI

Variants of: B1
Assay: one-hybrid fitness for binding parS DNA (scaled: cognate 1, non-cognate 0); higher = stronger binding
Details: with parS DNA site
Outline: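 Selection: bacterial one-hybrid in E. coli USO, HIS3 reporter with the site 19 bp from the promoter, 48 hours at 37°C on M9-minus-histidine plus 0.1 mM IPTG and 5 mM 3-AT. Libraries were Caulobacter ParB with four randomised specificity codons, sequenced on Illumina before and after selection. Fitness is the rescaled log change in variant-to-wild-type read ratio, anchored to the cognate and non-cognate sites.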

Row | Variant | one-hybrid fitness for binding parS DNA
1 | QWVD | ≤ 0.2
2 | PGCL | ≤ 0.2
3 | VSQT | ≤ 0.2
4 | SIAN | ≤ 0.2
5 | CHTM | ≤ 0.2
6 | APVA | ≤ 0.2
7 | RWYL | ≤ 0.2
8 | TCGF | ≤ 0.2
9 | LHPW | ≤ 0.2
10 | CSMS | ≤ 0.2
11 | AVAD | ≤ 0.2
12 | YHYC | ≤ 0.2
13 | HIPQ | ≤ 0.2
14 | WTMC | ≤ 0.2
15 | VFAT | ≤ 0.2
16 | TTRS | ≤ 0.2
17 | ETDI | ≤ 0.2
18 | HVIP | ≤ 0.2
19 | NGKF | ≤ 0.2
20 | TCDT | ≤ 0.2
21 | TSLD | ≤ 0.2
22 | QKYI | ≤ 0.2
23 | VDYF | 0.241
24 | HIMR | ≤ 0.2
25 | YKQR | ≤ 0.2

Row | Variant | one-hybrid fitness for binding parS DNA
26 | WKIG | ≤ 0.2
27 | TKEM | ≤ 0.2
28 | RVQA | 0.597
29 | TGSR | ≤ 0.2
30 | ADKT | ≤ 0.2
31 | AISG | ≤ 0.2
32 | MNNS | ≤ 0.2
33 | HTRH | ≤ 0.2
34 | YVHS | ≤ 0.2
35 | RQGM | 0.287
36 | NHRL | ≤ 0.2
37 | NATC | ≤ 0.2
38 | RLTS | 0.984
39 | PEAV | ≤ 0.2
40 | MPVR | ≤ 0.2
41 | TQNR | ≤ 0.2
42 | NPKL | ≤ 0.2
43 | RFND | ≤ 0.2
44 | TRLM | ≤ 0.2
45 | QMHR | ≤ 0.2
46 | SISL | ≤ 0.2
47 | TPIM | ≤ 0.2
48 | GPVM | ≤ 0.2
49 | KTVG | ≤ 0.2
50 | SIWG | ≤ 0.2

Row | Variant | one-hybrid fitness for binding parS DNA
51 | PARF | ≤ 0.2
52 | LVFF | ≤ 0.2
53 | HKSC | ≤ 0.2
54 | RGQM | ≤ 0.2
55 | TLKM | ≤ 0.2
56 | ERES | ≤ 0.2
57 | RRVS | 0.708
58 | QNDK | ≤ 0.2
59 | SSYW | ≤ 0.2
60 | YEPS | ≤ 0.2
61 | GGTR | ≤ 0.2
62 | TKNG | ≤ 0.2
63 | GLQT | ≤ 0.2
64 | ILTW | ≤ 0.2
65 | NWLT | ≤ 0.2
66 | CMYT | ≤ 0.2
67 | VVTL | ≤ 0.2
68 | DKTR | ≤ 0.2
69 | HLQM | ≤ 0.2
70 | NTPC | ≤ 0.2
71 | TRDS | ≤ 0.2
72 | RKVW | ≤ 0.2
73 | RTRW | 0.542
74 | SGCR | ≤ 0.2
75 | RPFG | ≤ 0.2

Row | Variant | one-hybrid fitness for binding parS DNA
76 | ESLA | ≤ 0.2
77 | RDCS | ≤ 0.2
78 | WGYR | ≤ 0.2
79 | SLHF | ≤ 0.2
80 | LWTL | ≤ 0.2
81 | WTLA | ≤ 0.2
82 | CTCN | ≤ 0.2
83 | YAST | ≤ 0.2
84 | TLWH | ≤ 0.2
85 | STEF | ≤ 0.2
86 | TAHY | ≤ 0.2
87 | QLTR | ≤ 0.2
88 | YSSP | ≤ 0.2
89 | HCLV | ≤ 0.2
90 | PRMW | ≤ 0.2
91 | PIKW | ≤ 0.2
92 | AMAA | ≤ 0.2
93 | RCGC | 0.97
94 | TSHR | ≤ 0.2
95 | KLSW | ≤ 0.2
96 | RVPQ | ≤ 0.2
97 | RLII | ≤ 0.2
